The campaign covered roughly 150,000 compounds. About 540 (0.36%) showed an effect of 50% or more. The list shows a part of the results.

41 compounds from ChEMBL document CHEMBL4888484, “Replenishing the malaria drug discovery pipeline: Screening and hit evaluation of the MMV Hit Generation Library 1 (HGL1) against asexual blood stage Plasmodium falciparum ,using a nano luciferase reporter read-out” (2022) can be followed below.

The test concerns Plasmodium falciparum. The test can be described thus: Primary screen in NF54 nanoGlo assay, in single point, at 2uM, 72h; a lower Z score goes with more inhibition. It counts as functional, Erythrocyte. As to conditions: timepoint 72 hour.
For `O=C(C1c2ccccc2Oc2ccccc21)N1C2CCC1CC(F)C2` (configuration not stated), the “% Inhibition” value is listed as -20% and the Z score came to 2.38.

`COCCNC(=O)NCCCN(C)c1ccccc1F`: the “% Inhibition” value is given as -4% and the Z score turned out to be 0.51.

On to `Cc1ccc(NC(=O)[C@H]2CCCN(c3c(-c4ccccc4)c4cc(Cl)ccc4[nH]c3=O)C2)cc1`, for which the “% Inhibition” value came out at 7% and the Z score was -1.18.

On to `CCNc1nc(NCC)nc(OCCNS(=O)(=O)c2ccccc2)n1`, for which the “% Inhibition” value was 14% and the Z score is listed as -1.87.

As for `Cc1ccc(NC(=O)c2ccc3c(-c4ccccc4)onc3c2)cc1`, the “% Inhibition” value stood at 32% and the Z score is -4.32.

With `O=C(c1cnc2ccccc2n1)N1CCC[C@H](Cc2nc(C3CC3)no2)C1`, the “% Inhibition” value worked out at 5% and the Z score is on record as -0.62.

On to `CN(CC1CC1)C(=O)Cc1cnn(-c2ccccc2)c1`, for which the “% Inhibition” value is -7% and the Z score is listed as 1.17.

`COc1cccc(NC(=O)[C@@H](C)C2CCN(C(=O)Nc3ccc(Cl)cc3)CC2)c1`: the “% Inhibition” value is -15% and the Z score is 2.52.

On to `O=C(Cc1c(F)cccc1Cl)N1CCC[C@H]1c1cccc(F)c1`, for which the “% Inhibition” value came to 5% and the Z score is recorded as -0.93.

With `COCc1cc(Cl)ccc1NC(=O)C1(C(F)(F)F)CCOCC1`, the “% Inhibition” value is on record as -8% and the Z score is 0.9.

As to `COCc1nc([C@H]2CCN(S(=O)(=O)c3ccc4c(c3)OCCO4)C2)no1`, the “% Inhibition” value is -7% and the Z score is reported as 1.38.

For `O=C(COc1ccc2ccccc2c1)N1CCC(Oc2ccc(Cl)cn2)CC1`, the “% Inhibition” value was -7% and the Z score came to 1.07.

With `Cc1ccc(Br)c(S(=O)(=O)NC2CC3CCC2O3)c1` (configuration not stated), the “% Inhibition” value is -4% and the Z score turned out to be 0.49.

Regarding `Cc1cc(CCNC(=O)CC2CCCC2)on1`, the “% Inhibition” value was -7% and the Z score is listed as 1.07.

For the compound `Cc1nc(C)c(C(=O)N2C[C@@H](CN3C[C@@H](C)O[C@@H](C)C3)[C@@H](CO)C2)s1`, the “% Inhibition” value is recorded as 2% and the Z score is listed as -0.24.

Turning to `Cn1nncc1CNc1ccc(F)c(NC(=O)C2CCCCC2)c1`, the “% Inhibition” value is given as -14% and the Z score came to 1.6.

Take `O=C(N[C@H]1CCCN(Cc2ccccc2)C1)c1cncc(O)n1`: the “% Inhibition” value is listed as 0% and the Z score is listed as -0.04.

As to `Cc1cccc(C)c1OCC(=O)Nc1cccc2c1C(=O)N(c1ccccc1)C2=O`, the “% Inhibition” value is -9% and the Z score is 1.14.

On to `COc1ccc(-c2c(C(=O)NCc3ccc(C)o3)nn3c(C)cc(C)nc23)cc1S(=O)(=O)N1CCCCC1`, for which the “% Inhibition” value is listed as -14% and the Z score worked out at 1.39.

`CC1Cc2cc(F)ccc2C(C)N1C(=O)CS(=O)(=O)C1CC1` (configuration not stated): the “% Inhibition” value was -13% and the Z score is reported as 1.73.

For `CCOc1ncccc1C(=O)N1CC[C@@H]2OCc3cccc(c3)Oc3cccc(c3)CC(=O)N(CC)CC(=O)N[C@H]2C1`, the “% Inhibition” value is -6% and the Z score is 1.17.

As for `COc1ccc(F)c(F)c1CN1CC[C@@]2(CCCN(CC3CC3)C2=O)C1`, the “% Inhibition” value is -6% and the Z score stood at 0.82.

As to `CN(C)CC(=O)NC1(c2noc([C@H]3CCOC3)n2)CCCCCC1`, the “% Inhibition” value is recorded as -6% and the Z score is recorded as 0.95.

For the compound `COc1ccc(N(Cc2cc(CN3CCOCC3)cs2)S(=O)(=O)c2ccc(F)c(F)c2)cc1`, the “% Inhibition” value is reported as -11% and the Z score was determined as 1.43.

For the compound `O=c1c(-c2noc(C3(F)CC3)n2)cccn1C1CC1`, the “% Inhibition” value was determined as 4% and the Z score was -0.57.

Regarding `CC(C)(C)OC(=O)NCc1cc(=O)[nH][nH]1`, the “% Inhibition” value was 0% and the Z score is -0.07.

For the compound `CC(C)Oc1ccccc1-c1cc(C(=O)Nc2sc3c(c2C(N)=O)CCCCC3)c2ccccc2n1`, the “% Inhibition” value was -9% and the Z score was found to be 0.97.

Turning to `CCOc1ccc(-c2nc(CN(C)S(=O)(=O)c3cccs3)cs2)cc1OC`, the “% Inhibition” value is listed as -19% and the Z score is 2.6.

With `Cc1ccc(CNC(=O)c2ccc(N3CCCCS3(=O)=O)cc2)cc1`, the “% Inhibition” value is on record as -9% and the Z score was 1.22.

For the compound `N#CCCN(C[C@H]1CCOC1)C(=O)c1cccc2[nH]ccc12`, the “% Inhibition” value stood at 0% and the Z score is -0.01.

For the compound `Cc1ncccc1C(=O)NCCc1csc(NC(=O)c2cccnc2C)n1`, the “% Inhibition” value was -12% and the Z score is on record as 1.8.

For the compound `CCN(Cc1cnn(CC)c1)C(=O)[C@@H]1CCCN(Cc2ccccc2)[C@@H]1COC`, the “% Inhibition” value was determined as 5% and the Z score is -0.65.

Turning to `NC(=O)c1nccnc1C(=O)Nc1cccc(-c2ncco2)c1`, the “% Inhibition” value was -2% and the Z score is 0.28.

As to `O=C(Nc1ccc2[nH]c(=O)[nH]c2c1)c1nn(Cc2ccccc2)c(=O)c2ccccc12`, the “% Inhibition” value was -4% and the Z score is on record as 0.51.

`Cc1nc(-c2cccc(CN3CC[C@@]4(O)CCCC[C@H]4C3)c2)[nH]c(=O)c1F`: the “% Inhibition” value was -15% and the Z score is 1.56.

Take `O=C(CN1CCN(c2ccc(F)cc2)C1=O)NCc1ccccn1`: the “% Inhibition” value is recorded as 0% and the Z score is on record as -0.01.

For the compound `c1ccc(-c2noc(-c3ccc[nH]3)n2)cc1`, the “% Inhibition” value is -12% and the Z score worked out at 1.34.

For the compound `CC1(C)Cc2nc3nc(O)[nH]c3cc2CO1`, the “% Inhibition” value is recorded as -6% and the Z score was determined as 0.77.

With `Cn1cc(C(=O)N2CCC23COC3)c(-c2ccc(Cl)s2)n1`, the “% Inhibition” value is listed as -7% and the Z score was found to be 0.91.

As for `COc1ccc([C@H]2CC(O)=Nc3c2ncn3-c2ccc(F)cc2)cc1`, the “% Inhibition” value is -5% and the Z score is recorded as 0.55.

`Cc1nc([C@H]2C[C@H](NC(=O)CCc3c(C)noc3C)C2)cc(=O)[nH]1`: the “% Inhibition” value was -5% and the Z score is reported as 0.58.

Broadly, the % Inhibition is the relative decrease from the control value, in per cent.
